From ChEMBL document CHEMBL4888484, “Replenishing the malaria drug discovery pipeline: Screening and hit evaluation of the MMV Hit Generation Library 1 (HGL1) against asexual blood stage Plasmodium falciparum ,using a nano luciferase reporter read-out” (2022)
Out of some 150,000 compounds screened, about 540 (0.36%) showed an effect of 50% or more. The list shows a part of the results.

The molecules below were run on Plasmodium falciparum (assay: Primary screen in NF54 nanoGlo assay, in single point, at 2uM, 72h; a lower Z score goes with more inhibition). Details: timepoint 72 hour.
Type: functional, Erythrocyte

SMILES | % Inhibition | Z score
N#Cc1ccc(-n2nc(C3CCOCC3)nc2[C@@H]2CNC(=O)N2)cc1 | -13% | 2.57
Cc1cc(CCCOc2ccc(C#N)nn2)on1 | 13% | -1.7
Clc1cc(CNc2ccccc2-c2ccccc2)c2c(c1)COCO2 | -8% | 1.15
CCCN(CC(=O)Nc1ccc(Cl)cc1)C(=O)c1cc(C)nn1C | -14% | 1.67
CCOC(=O)CNc1nc(C)cc(C)c1C#N | -18% | 2.05
CC(C)(C)OC(=O)c1ccc(NC(=O)[C@H]2CCCO2)nc1 | -6% | 0.87
Cc1cnc2c(cnn2CC(=O)N2CCOC[C@@H]2CC2CC2)c1 | -3% | 0.44
CC(=O)Oc1c(C)cc(CN[C@@H](C)Cn2cccn2)cc1C | -10% | 1.88
Cc1nsc(NC(=O)[C@H]2CCc3cnn(C)c3C2)n1 | 0% | -0.07
Cc1cccc(C)c1CN(C)C(=O)NCc1cnnn1C | -10% | 1.49
CCc1nnc2c(=O)n(CC(=O)NCc3ccccc3F)c3cccnc3n12 | -10% | 1.33
O=C(Nc1nncs1)C1CCN(C(=O)c2ccncc2Cl)CC1 | -4% | 0.67
Cn1cc(C2C[S+]([O-])CCN2C(=O)C2CC2C2CC2)cn1 (stereo unspecified) | -12% | 1.89
Cc1ccc(CNC(=O)[C@H](O)C2CCCCC2)c2cccnc12 | -1% | 0.13
Cc1nn(Cc2noc(C(C)(C)C)n2)c(=O)c(C#N)c1C | -3% | 0.51
O=C(c1ccco1)N1CC[C@H](Oc2cc(C(F)(F)F)ccn2)C1 | -13% | 2.44
CN(C)CCN(C)[C@@H]1[C@H](O)[C@H](CO)O[C@@H]1CNC(=O)Nc1ccc(OC(F)(F)F)cc1 | 30% | -3.38
CC[C@H]1c2ccccc2CN1C(=O)Nc1cnn(CC2CC2)c1 | 5% | -0.92
CC(C)[C@@H](CNCC(=O)NCC1CC1)CNC(=O)OC(C)(C)C | -1% | 0.1
CC1(CO)CN(Cc2cc(Br)ccc2OC(F)F)C1 | -11% | 1.52
Cn1nc(CN2CC[C@@](O)(CN3CCCCC3)C2)c2c(Cl)cccc21 | -2% | 0.34
CCN1CCC[C@@H]1CNC(=O)c1cc(NC(C)=O)c(N(C)C)cc1OC | -5% | 0.6
CCc1c(C)nc(N)nc1NCc1nc(CCOC)no1 | -14% | 1.79
C[C@@H](C(=O)NCCc1ccc2c(c1)OCCO2)n1cccn1 | -5% | 0.91
COc1cc([C@@H]2c3c(-c4ccc(OCc5ccc(C)cc5)cc4)nn(C)c3C(=O)N2CCc2ccccc2)cc(OC)c1O | 1% | -0.17
CCC[C@H](NC(=O)c1cc2ccccc2o1)c1nnn[nH]1 | -7% | 0.68
COCCC1CCN(C(=O)CN(C)C(=O)c2cccnc2)CC1 | 1% | -0.26

SMILES | % Inhibition | Z score
O=C(Cc1c[nH]c2ccccc12)N1CC[C@H](Oc2cccnn2)C1 | -5% | 0.59
Cc1ccc(OCC(=O)N2CCOc3ccc(CN4CCCCC4)cc3C2)cc1 | -5% | 0.51
C[C@@H](CNC(=O)c1cccs1)NC(=O)c1cccs1 | -7% | 0.77
CCN(C)C(=O)Cn1cnc2c(ncn2-c2ccccc2)c1=O | -3% | 0.55
CCNC(=O)[C@H]1CCN(C(=O)Nc2cc(-c3nnn(C)n3)ccc2C)C1 | 5% | -0.6
CCN1CCN(C(=O)Cn2cnc3nc4c(cc3c2=O)CCCC4)CC1 | -12% | 1.81
CCn1ncnc1-c1c(-c2ccccc2)ncn1[C@@H](C)Cc1cc(C)n[nH]1 | -5% | 0.74
Cc1ccc(C2=C[C@@H](c3cccc4ccccc34)n3nnnc3N2)cc1 | 21% | -2.69
CCCc1ccc(C(=O)OCCOCCNC(=O)C(F)(F)F)cc1 | -3% | 0.3
CC(C)Oc1ccc(C(=O)NCc2cn(-c3cccnc3)nn2)cc1 | -4% | 0.58
C[C@H](NC(=O)c1cnc(C2CC2)nc1O)c1nc(-c2cccnc2)no1 | -9% | 1.31
CN(Cc1nnsc1Cl)C1CCCCCC1 | -2% | 0.24
CCc1ccc(NC(=O)N[C@H]2CCN(C3CCC3)C2=O)cc1F | -1% | 0.21
CCn1cnnc1CCNc1cc([C@H]2CCOC2)ncn1 | 0% | 0.01
CCNS(=O)(=O)C1CON(C)C1c1cccc(Cl)c1Cl (stereo unspecified) | -4% | 0.53
Cc1cc(C)c(NC(=O)CN(C)C(=O)c2ccc3[nH]c4c(c3c2)CCCC4)c(C)c1 | 4% | -0.7
COC(=O)CNC(=O)NCCc1ncc(C)n1C1CCCCCCC1 | -4% | 0.65
COc1ccc(C(=O)N2CCC[C@H](C(=O)Nc3ccc(C)cc3O)C2)c2ccccc12 | -6% | 0.72
Cc1nc(NC(=O)CCc2nc3cccnc3[nH]2)n[nH]1 | -16% | 2.95
Cc1nc([C@@H]2CCCCCN2C(=O)Cc2ccc3c(c2)OCO3)no1 | -2% | 0.43
CC[C@H](C)N(Cc1cc(NC(=O)COC)ccc1N(C)C)C(=O)CC(C)(C)C | -11% | 1.11
CC(NC(=O)CNC(=O)C1O[C@@H]2OC(C)(C)O[C@@H]2[C@H]2OC(C)(C)O[C@@H]12)C(=O)Nc1ccccc1 (stereo partly specified) | -8% | 1.47
CCO[C@H]1COC[C@@H]1NC(=O)c1sc(OC)nc1C | -10% | 2.01
CN1CCC(CN(CCc2ccccc2)C(=O)c2ccc(=O)n(C)n2)CC1 | -7% | 0.83
CN1CCN(c2nc3nccc(-c4ccc5ccccc5c4)c3c(=O)[nH]2)CC1 | -17% | 2.96
O=C(Cn1nc2n(c1=O)C(=O)N(c1ccccc1)C2)NCc1cccnc1 | -1% | 0.19
